Assay results: publication PMC10668032
This is one part of the list. At the low end of the ranking the order means little.

target: SIX1 homeodomain (reference allele) (UniProt Q15475); experiment: universal protein binding microarray; details: Universal all-10-mer PBM (8x60K, AMADID 030236), 300 nM GST-tagged protein, Alexa Fluor 488 anti-GST; buffer, salt, pH and temperature not stated; high values mean tight binding; most listed sequences are background and not binding sites; double strand, one strand shown

Sequence	binding signal [E-score]
CATGTCGC	0.00449
CCGAAAAG	-0.0906
ACAGACTC	-0.265
TGGAGCCA	-0.219
GCTTAGTA	-0.0597
GGCTCAGA	0.0979
CGACATCG	-0.0482
CGCTAGAA	-0.0571
GGGTATCA	0.497
ACGTGACG	-0.229
CCGTAAGG	0.0211
CAGTCGTA	-0.101
ATTCCCAG	-0.0378
AAATAACT	-0.175
AGGTCATA	0.0508
ACGTCCGC	-0.19
CAGTAATC	0.0968
GACTATTA	-0.0403
AGGTAGTC	0.00526
TCCGAGCA	-0.0193
AACGGGAC	-0.281
GGGAAGTA	0.0408
AGTTAGAA	-0.12
CACCGTGC	0.129
CTTTTAGA	-0.103

Sequence	binding signal [E-score]
CAATCGAG	-0.0672
CAGGCCAA	-0.188
AATTGAGC	0.013
AGACCGGC	0.0106
ACATGGGG	-0.0565
GGAACCGA	-0.00911
CTCTATTC	0.0489
AATTCTCC	-0.147
ATCCATCG	0.246
ATGAACAA	-0.193
AGTCCGTG	-0.0387
ACACGATG	0.156
CATCCCCC	0.199
CATCCGCG	-0.0348
CCTAACTC	-0.247
GACCCCGA	0.162
CAAAGTTC	-0.195
AGTATCAT	0.473
GGACTCAC	-0.11
AACAGGCG	-0.151
ATTCTGCA	-0.0985
GAGCTTCC	-0.00866
ACATGGTA	0.159
CACGGGCG	0.00782
CAAATGGA	-0.0716

Sequence	binding signal [E-score]
GTAGGGAA	-0.131
CAGTATCG	0.435
CGTCTGGA	-0.259
ACTCCTGG	0.0384
GTTAAAAC	-0.232
CGGTGTAC	0.309
ATTCCAGC	-0.0405
GATCGATA	0.408
CGATTTTC	-0.126
TGTAGGAA	-0.111
ATAATGCG	0.0852
GGCAGGGA	-0.0171
AATTATGT	-0.137
AAGCAAGG	-0.155
CTAATCTA	-0.0476
AGTATAAT	0.265
AACGAAGA	-0.0393
CGGAGGAA	-0.257
TCTGCCCA	-0.0751
ACCTGGAC	-0.134
CGGTCCTC	-0.184
AGCCGTAT	0.292
ATAATCGG	0.196
CCGACCCA	0.155
CACTAAGC	-0.0184

Sequence	binding signal [E-score]
ATCGTGCC	0.192
AGTCACGG	-0.0996
CATAAATA	-0.0792
GATCACGC	0.317
ACGCGTCT	-0.00994
GGGCTTTA	-0.29
ACTGGAAA	-0.269
GATGTTGA	-0.0757
ACAGACCG	0.0387
AATTCCCA	-0.0997
GCAGAACC	0.0331
GCGCACTA	-0.15
ACGTAGGG	-0.0364
AACATAAC	0.0137
TGAAACCA	0.163
CATGGGCC	-0.347
ACAAGCTA	-0.0481
GTGTAGAA	0.0034
AACTACGC	-0.2
TGTAAAAA	-0.282
GTTGTTTA	-0.0414
CGCGGGGC	-0.0535
AAGCCCCC	-0.225
ACACGCGA	0.125
CCCTCTCA	0.17

Sequence	binding signal [E-score]
GCCTCGTA	-0.0546
GCCGCCAC	-0.259
CAGCTCCC	-0.0381
CCGTTTCA	-0.0155
AATTTCCA	-0.312
GCTTTTTA	-0.182
ACCCGCGT	-0.104
CGATGGTA	-0.121
ACGGAAGT	-0.13
GTGGCTAA	-0.142
ATTGAGTG	0.0213
AGTTCATG	-0.0781
ATTATGCG	0.242
AATCCGAA	0.00788
GACGCACC	-0.203
AACTTTAT	-0.145
CACACAAC	-0.244
CCCTTATC	0.0801
ACTTGAAT	0.0267
AATCCGGA	0.276
ACCTTTAT	-0.117
CAGTCTGA	-0.0651
CTTTAAAG	-0.18
CCGGCATC	0.201
ACTCACAT	-0.091

Sequence	binding signal [E-score]
GGGGTAAC	0.126
TAATCTAA	-0.0279
CTGGAAGC	-0.147
AACACCCG	0.304
AGTGTATC	0.43
CATACAAA	-0.0204
GCGGCCAA	-0.142
ACATTAAC	0.0223
ATAATTCA	-0.00119
CCTAATAG	-0.00866
AAGTGTGT	-0.0803
TAGACAAA	-0.167
AATGTCCA	-0.282
CTAACATC	-0.0863
AAAATAAT	0.0704
AACCCTAC	-0.0921
CCGTGAGG	-0.142
ACGCGTCG	-0.0524
ACTGGGCC	-0.323
ATGTCGAC	-0.0647
CATAATGC	-0.0538
AACGTTTA	-0.228
AATGCACT	-0.133
ACACCCTG	0.321
GTCTGCAC	-0.209

Sequence	binding signal [E-score]
GGCCGGCC	-0.346
CTCTGCGC	-0.0616
TCGCACAA	-0.103
CACTATCA	0.276
TCATTGGA	0.00481
ATCATATC	0.425
GAAAGGCC	0.0234
GTTAGGAA	-0.0998
AACCAAAC	-0.336
ACCCCGGG	0.118
AATACCCA	0.29
CTAACCGC	0.00498
GGATTGAC	0.0149
TCGTGCAA	0.0103
GAATGGAA	-0.173
CACCATCA	-0.0879
CACACACC	0.0747
ATTCGCCA	0.0239
CTGGCCGC	-0.288
AGATATAA	0.261
GGTCAGTA	-0.0787
GACGTGAA	-0.274
AAGCGGTA	0.00751
CTAAAGTA	-0.00647
AACCCTCG	-0.00321

Sequence	binding signal [E-score]
AAATACTC	0.0962
CCCTCGAA	-0.0953
AGGAAGGA	-0.132
AATCCGGC	0.228
CGCAATAG	-0.0313
CTTAAAAC	-0.169
AATACCAT	0.296
ACACCCCA	0.365
CACGCTCG	-0.24
ACCCGCAA	0.0386
AAAAAATG	-0.255
GGGATAAA	0.212
AAAACTTG	-0.193
GGGACGCA	-0.306
CCAAATAC	0.0961
ACGGGCAT	0.0253
CAGGCACA	-0.118
CGCTTATA	0.0407
CCAAAGCG	-0.13
GGGTGGCA	-0.0349
ACGCAAGC	-0.0951
ACCAAATA	0.119
ACCGTCTA	0.0488
GCTCTATA	0.0654
AGGCGCAT	0.0677

Sequence	binding signal [E-score]
ATAGGTGC	0.0708
CATTAGGC	-0.22
CGGAAATA	0.092
AGGATAAA	0.16
AAAGCTGA	-0.123
AAAGCGCA	-0.0808
CTAGATCA	0.303
CGATCGTC	0.0769
ATTTACGG	-0.176
TGGCGCCA	-0.379
CACTGCTC	-0.0732
AATGATCA	0.113
CTTGTGCA	-0.156
AGCCCACG	-0.147
ATCTTATG	0.0883
AGTACCAT	0.0404
CTCTATTA	-0.178
GACATTGA	-0.0218
ACCACAAC	-0.0481
ACTACAGT	-0.065
CCCGGCGC	0.0859
GTCTAAAC	0.0999
AATTGTAA	-0.201
GTGCAAGA	-0.0238
ATACTCAT	0.297

Sequence	binding signal [E-score]
GAAACTAC	-0.253
CGTTGAAC	-0.145
CTTCGCGC	-0.0997
CTCCCTGC	-0.0895
CCGCAGTC	-0.137
GTGAACAC	-0.082
GAGTTTGA	-0.0765
CGCACCCG	0.121
CGTAACGC	-0.144
AAAGGGTT	-0.0883
ATCGCACG	0.207
TGATTTAA	-0.0863
CAAAACCC	0.04
ATAGAGTC	-0.0374
CGGTTTTC	-0.13
AGACGGCG	-0.0675
CACTATGC	0.0958
CATATCCG	0.426
TGCGCCAA	-0.255
GGCCTACA	-0.0413
CGCGCATC	-0.131
GGTTGGAA	-0.225
GCGAGCCC	0.207
GCGTGCGA	-0.0337
ACGCTAAG	-0.132

Sequence	binding signal [E-score]
GGCCTTTA	-0.229
CACCTGCG	0.105
AGTGAACT	-0.199
AAGCTTGA	-0.17
CCAAGAAA	0.0457
GCGAGTTA	-0.0829
CTAGACTA	-0.0397
AAACCGAG	-0.0681
ATACCTGA	0.367
GATTGTGC	-0.0658
CCGTTCAA	0.0578
TACCGTCA	0.096
CCCTTCTA	0.0856
CAGCACCC	-0.202
GCTGTTTA	-0.0313
AATTCTAC	-0.19
CCATAAGC	-0.236
AGGCTGCC	-0.205
ACCAACGC	-0.0326
CCTATGTA	0.156
CAACCACG	-0.187
AGAACCGC	-0.112
CACGTACC	-0.0898
GACCCTCC	0.125
CTCACCTC	-0.00249

Sequence	binding signal [E-score]
CCTGTGAA	-0.0332
CCTGTGGC	-0.19
CGTGTCCA	0.00655
AACACCAT	0.173
GCTATTAA	-0.00791
CATAAAAG	-0.0567
AGTTTTAG	-0.18
GATCGCGA	0.338
CCAACAGA	0.0914
GGAAAAGA	-0.318
CAATGGCC	-0.303
AGAAACGG	0.0744
GCTCTTCA	-0.178
CTAAAGAG	-0.0262
ATTTGCGC	-0.13
GGTGGATA	0.362
ACGACCTC	0.122
ACTCATTC	-0.00826
GAATCATC	0.123
TCATAACA	0.0927
ACGCGATA	0.316
CTGGGAAA	-0.09
CATTCCAG	-0.135
CACGCAGA	-0.00376
AACAAGCC	-0.269

Sequence	binding signal [E-score]
CGGGCCAG	-0.0259
ATGATTGG	-0.201
CGCCCCTA	0.0534
AGCAACAT	-0.256
GCGGTGTA	0.336
AATGGTTA	-0.191
CGCGCCGC	-0.026
AGGGAGTG	-0.0527
CCAATTAA	-0.218
ATTGCTAC	-0.0354
AGGGTCGA	0.138
GGACTTAC	-0.197
AAGGTACT	-0.199
ACCGCAGT	0.0666
AATCAGAG	-0.024
AGATTGAG	0.0691
CGAGCTGC	-0.0379
CTCATCAA	-0.00447
GCTCACCA	0.0132
AGTGTACG	0.0873
ATTTGGTG	0.118
ACTGAAAG	-0.149
CTGCGACA	-0.0119
TGAACGCA	-0.0861
ATTGGGAA	-0.105

Sequence	binding signal [E-score]
CTGCACAA	-0.0295
CCGGGGGC	-0.132
CGAACGAG	-0.134
ATTCTACC	0.048
CAAGATAG	0.0971
AACATGGT	0.0399
AGGACCGG	-0.138
GCGACAAC	-0.329
TCCGCGAA	0.0318
GCCTATCA	0.289
ACGGAGCA	-0.0304
GCCAGGGC	-0.176
GGGGGTCA	0.0355
GTCAGTCA	-0.176
AGTTTAAC	-0.0126
CCGTGTCA	0.344
CAGTTATG	-0.126
GCACCCAC	-0.0835
CCATCCGC	0.112
